# Assay results from publication PMC9911399, “Two distinct binding modes provide the RNA-binding protein RbFox with extraordinary sequence specificity”.
# Positions count from the first letter of the chain named. The list shows a part of the results.
# B1: GGAGUAU (DNA:RNA)
# RNA: GGGAGACCGGAAUUCAGAUUGUCCGGAGUAUUUAAAUCCCGUCGUAGCCACCA
# DNA 1: CAATCTGAATTCCGGTCTCCC
# DNA 2: TGGTGGCTACGACGGGATT
# B2: CGGCUGG (DNA:RNA)
# RNA: B1 RNA with G25C, A27G, G28C, A30G, U31G
# DNA 1: CAATCTGAATTCCGGTCTCCC
# DNA 2: TGGTGGCTACGACGGGATT
# B3: UUUGAUU (DNA:RNA)
# RNA: B1 RNA with G25U, G26U, A27U, U29A, A30U
# DNA 1: CAATCTGAATTCCGGTCTCCC
# DNA 2: TGGTGGCTACGACGGGATT
# B4: CUUGUGA (DNA:RNA)
# RNA: B1 RNA with G25C, G26U, A27U, A30G, U31A
# DNA 1: CAATCTGAATTCCGGTCTCCC
# DNA 2: TGGTGGCTACGACGGGATT
# B5: CACGGUU (DNA:RNA)
# RNA: B1 RNA with G25C, G26A, A27C, U29G, A30U
# DNA 1: CAATCTGAATTCCGGTCTCCC
# DNA 2: TGGTGGCTACGACGGGATT
# B6: CGUUGGU (DNA:RNA)
# RNA: B1 RNA with G25C, A27U, G28U, U29G, A30G
# DNA 1: CAATCTGAATTCCGGTCTCCC
# DNA 2: TGGTGGCTACGACGGGATT
# B7: UGAUUAG (DNA:RNA)
# RNA: B1 RNA with G25U, G28U, U31G
# DNA 1: CAATCTGAATTCCGGTCTCCC
# DNA 2: TGGTGGCTACGACGGGATT
# B8: GCCACCA (DNA:RNA)
# RNA: B1 RNA with G26C, A27C, G28A, U29C, A30C, U31A
# DNA 1: CAATCTGAATTCCGGTCTCCC
# DNA 2: TGGTGGCTACGACGGGATT
# B9: UCCCCCC (DNA:RNA)
# RNA: GGGAGACCGGAAUUCAGAUUGUCCUCCCCCCUUAAAUCCCGUCGUAGCCACCA
# DNA 1: CAATCTGAATTCCGGTCTCCC
# DNA 2: TGGTGGCTACGACGGGATT
# B10: CCUCACU (DNA:RNA)
# RNA: B9 RNA with U25C, C27U, C29A, C31U
# DNA 1: CAATCTGAATTCCGGTCTCCC
# DNA 2: TGGTGGCTACGACGGGATT
# B11: GGGACGU (DNA:RNA)
# RNA: B1 RNA with A27G, G28A, U29C, A30G
# DNA 1: CAATCTGAATTCCGGTCTCCC
# DNA 2: TGGTGGCTACGACGGGATT
# B12: UACUAGU (DNA:RNA)
# RNA: B9 RNA with C26A, C28U, C29A, C30G, C31U
# DNA 1: CAATCTGAATTCCGGTCTCCC
# DNA 2: TGGTGGCTACGACGGGATT
# B13: AAACCAG (DNA:RNA)
# RNA: B1 RNA with G25A, G26A, G28C, U29C, U31G
# DNA 1: CAATCTGAATTCCGGTCTCCC
# DNA 2: TGGTGGCTACGACGGGATT
# B14: AGAUUAG (DNA:RNA)
# RNA: B1 RNA with G25A, G28U, U31G
# DNA 1: CAATCTGAATTCCGGTCTCCC
# DNA 2: TGGTGGCTACGACGGGATT
# B15: UCAGCCC (DNA:RNA)
# RNA: B9 RNA with C27A, C28G
# DNA 1: CAATCTGAATTCCGGTCTCCC
# DNA 2: TGGTGGCTACGACGGGATT
# B16: GGGUAUA (DNA:RNA)
# RNA: B1 RNA with A27G, G28U, U29A, A30U, U31A
# DNA 1: CAATCTGAATTCCGGTCTCCC
# DNA 2: TGGTGGCTACGACGGGATT
# B17: CGGGUGC (DNA:RNA)
# RNA: B1 RNA with G25C, A27G, A30G, U31C
# DNA 1: CAATCTGAATTCCGGTCTCCC
# DNA 2: TGGTGGCTACGACGGGATT
# B18: UCGGGGC (DNA:RNA)
# RNA: B9 RNA with C27G, C28G, C29G, C30G
# DNA 1: CAATCTGAATTCCGGTCTCCC
# DNA 2: TGGTGGCTACGACGGGATT
# B19: UACGAGC (DNA:RNA)
# RNA: B9 RNA with C26A, C28G, C29A, C30G
# DNA 1: CAATCTGAATTCCGGTCTCCC
# DNA 2: TGGTGGCTACGACGGGATT
# B20: AGGCGAG (DNA:RNA)
# RNA: B1 RNA with G25A, A27G, G28C, U29G, U31G
# DNA 1: CAATCTGAATTCCGGTCTCCC
# DNA 2: TGGTGGCTACGACGGGATT
# Target: T1, RBFOX1 RRM RbFoxmut (Fox-RRM*) (Homo sapiens, UniProt Q9NWB1 109-208, R118D;E147R;N151S;E152T)
# T1 sequence: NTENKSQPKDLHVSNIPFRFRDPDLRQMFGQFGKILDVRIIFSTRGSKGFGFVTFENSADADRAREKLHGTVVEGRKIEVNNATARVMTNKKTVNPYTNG
# Assay: EMSA; HiTS-Eq, 1 nM pool, 10 min; buffer printed only for the single-RNA assays: 10 mM Tris pH 7.5, 150 mM NaCl, 3.4 mM EDTA, 0.001% NP-40, 30 C
# Details: tags: His6 N-terminal (pET28a); label: 5' 32P
# In short: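 Purified RbFox RRM (wild type or mutant) was equilibrated for 10 min in 50 µL with 1 nM of a 5′-radiolabelled pool of RNA with 7 randomized nucleotides, its flanks annealed to DNA oligonucleotides, across increasing protein concentrations. Free RNA was separated by 8% native PAGE, excised, reverse-transcribed, PCR-barcoded and sequenced on an Illumina HiSeq 2500. Relative association constants came from read-count changes of each variant against the control reaction, normalised to the cognate motif.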
row,Binder,binding signal
1,B1,0.114 KA relative to UGCAUGU
2,B2,0.123 KA relative to UGCAUGU
3,B3,0.0999 KA relative to UGCAUGU
4,B4,0.108 KA relative to UGCAUGU
5,B5,0.0946 KA relative to UGCAUGU
6,B6,0.168 KA relative to UGCAUGU
7,B7,0.116 KA relative to UGCAUGU
8,B8,0.0652 KA relative to UGCAUGU
9,B9,0.0392 KA relative to UGCAUGU
10,B10,0.0967 KA relative to UGCAUGU
11,B11,0.162 KA relative to UGCAUGU
12,B12,0.0635 KA relative to UGCAUGU
13,B13,0.109 KA relative to UGCAUGU
14,B14,0.138 KA relative to UGCAUGU
15,B15,0.0707 KA relative to UGCAUGU
16,B16,0.139 KA relative to UGCAUGU
17,B17,0.142 KA relative to UGCAUGU
18,B18,0.0875 KA relative to UGCAUGU
19,B19,0.0835 KA relative to UGCAUGU
20,B20,0.11 KA relative to UGCAUGU
